Hit rate of the full screen: of about 150,000 compounds, about 180 (0.12%) were called active. Inconclusive means that the source gave no clear call. Such entries were picked first, then a sample of the others. Calls come from the whole dose curve; as a rule, active = well fitted cell-killing curve with a large enough effect; inconclusive = small, poorly fitted or top-dose-only effect, or effect the other way; inactive = flat fitted curve, though single readings scatter. A potency beside an inconclusive call is a rough fit, not a confirmed value.
Assay: GF-AFC viability counterscreen for inhibitors of alpha-synuclein gene (SNCA) expression; note: nearly all actives have a fitted effect of over 30% in size;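 for activity change, negative = cytotoxicity: 0% = DMSO-treated cells and -100% = medium-only wells without cells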
Settings: HEK-293-SNCA-luc viability, GF-AFC fluorescence, 24 h; activity change, negative = cytotoxicity: at 57.1 µM (top of the series) unless noted
How it was run: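 HEK-293-SNCA-luc cells (1500/well) plated 24 h, then exposed 24 h to a dilution series; GF-AFC added 30 min at 37C, fluorescence 405/540 nm; normalised to medium-only and DMSO wells, Hill fit.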
For Cc1ccccc1C(=O)N1CCc2[nH]nc(C(=O)NCCCc3ccccc3)c2C1, the “activity change, negative = cytotoxicity” value was inactive: -6.91%.
With Cc1ccc(N2CCN(C(=O)c3cc(C(F)(F)F)nn3C)CC2=O)cc1 the Potency was inconclusive: 3.98 µM [cytotoxic, full curve, poor fit].
For Cc1ccc(NC(=O)c2ncoc2-c2ccco2)cc1Cl, the “activity change, negative = cytotoxicity” value was inactive: 6.24%.
For COc1cccc(Nc2nccc3c(=O)cc(-c4ccccn4)oc23)c1, the Potency was inconclusive: 35.5 µM [cytotoxic, partial curve, poor fit].
In the case of COC(=O)CNC(=O)N1CCN(S(=O)(=O)c2ccc3c(ccn3C)c2)CC1, the Potency is reported as inconclusive: 1 µM [rising, partial curve, poor fit].
For O=C(c1cccc2[nH]ccc12)N1CCCC(n2cc(-c3nc(C4CC4)no3)nn2)C1 (stereo unspecified), the “activity change, negative = cytotoxicity” value was inactive: 4.42%.
In the case of CCN(C(=O)C1CCCN(c2ncnc3c2nc2n3CCCCC2)C1)c1cccc(C)c1 (stereo unspecified), the Potency is reported as inconclusive: 28.2 µM [cytotoxic, single point].
With CN(C(=O)Cc1cccc(Cl)c1)C1CCCc2ccccc21 (stereo unspecified) the “activity change, negative = cytotoxicity” value was inactive: -14% [at 87.6 µM].
With O=C(c1ccc(Cn2ccn3nc4c(c3c2=O)CCCC4)cc1)N1CCN(c2ccccn2)CC1 the Potency was inconclusive: 39.8 µM [cytotoxic, single point].
In the case of CCOc1ccc(NC(=O)c2nc3nc(C)cc(C(F)F)n3n2)cc1, the Potency is reported as inconclusive: 28.2 µM [rising, partial curve].
With COCCCn1c(=N)c(C(=O)NCc2cccnc2)cc2c(=O)n3cc(C)ccc3nc21 the Potency was inconclusive: 1.78 µM [rising, full curve, poor fit].
For Cc1ccc(C(=O)N2CCCC3(CCNCC3)CC2)c2ccccc12, the “activity change, negative = cytotoxicity” value was inactive: -15%.
With Cc1ccc(NC(=O)c2ccc(CNS(=O)(=O)c3ccc4c(c3)C(C)(C)C(=O)N4C)cc2)cc1C the Potency was inconclusive: 39.8 µM [cytotoxic, single point].
For Cc1noc([C@@H]2CN(C(=O)CCc3c[nH]c4ccccc34)C[C@H]2CO)n1, the “activity change, negative = cytotoxicity” value was inactive: -1.19%.
With COCCn1cc2c3c(cccc31)CN(C(=O)c1cccc(C(F)(F)F)c1)CC2 the Potency was inconclusive: 2.82 µM [rising, full curve, poor fit].
In the case of COCCNC(=O)c1nc(-c2ccccc2)c2ccccn12, the “activity change, negative = cytotoxicity” value is reported as inactive: 4.15% [at 87.6 µM].
With CCn1nc(-c2ccc3c(c2)OCCO3)nc1N(C)C the “activity change, negative = cytotoxicity” value was inactive: -6.47%.
With Cc1c(C)n(Cc2ccccc2)c2ccc(C(=O)OCCN(C)C)cc12 the “activity change, negative = cytotoxicity” value was inactive: -9.07% [at 23.9 µM].
In the case of O=C(NCc1ccccc1Cl)c1ccc(Cn2c(SCc3ccccc3)nc3cccnc32)cc1, the Potency is reported as inconclusive: 11.2 µM [cytotoxic, partial curve].
In the case of COc1ccc(-c2noc([C@@H]3CCCN3C(=O)c3ccc(OC)c(F)c3)n2)cc1, the Potency is reported as inconclusive: 14.1 µM [cytotoxic, partial curve, poor fit].
In the case of Cc1cnc(CC2CCCN(C(=O)Cc3cccc(F)c3)C2)n1C(C)C (stereo unspecified), the “activity change, negative = cytotoxicity” value is reported as inactive: 3.59%.
For CN(c1ccccc1)c1ccc2ncn(C3CC3)c(=O)c2n1, the “activity change, negative = cytotoxicity” value was inactive: 0.244% [at 87.6 µM].
With CCNC(=O)C1CC(c2ccc(CC)cc2)CN(C(=O)c2ccoc2)C1 (stereo unspecified) the Potency was inconclusive: 4.47 µM [cytotoxic, single point].
In the case of C[S+](=O)([O-])N1CC2(Cc3ccccc31)CN(C(=O)c1cccc(Cl)c1)C2, the “activity change, negative = cytotoxicity” value is reported as inactive: 5.33%.
With CN1CCN(c2cc(=O)c3ccnc(-c4cn[nH]c4)c3o2)CC1 the “activity change, negative = cytotoxicity” value was inactive: 5.47% [at 87.6 µM].
For CCN(c1nc(N)c(C(=O)N=C(N)N)nc1Cl)C(C)C, the Potency was inconclusive: 25.1 µM [cytotoxic, single point].
For Cn1cccc1-c1noc(C2CCN(Cc3noc(-c4ccccc4)n3)C2)n1 (stereo unspecified), the “activity change, negative = cytotoxicity” value was inactive: 12.7%.
In the case of CCOc1ccc(CCNC(=O)CN2C(=O)COc3ccc(S(=O)(=O)N4CCCCCC4)cc32)cc1, the Potency is reported as inconclusive: 10 µM [cytotoxic, partial curve].
For COc1ccc(C(=O)NC2CCN(c3cnn(CC4CC4)c(=O)c3)CC2)cc1, the Potency was inconclusive: 11.2 µM [cytotoxic, partial curve, poor fit].
With O=C(c1ccccc1)N1CCc2nc(C3CC3)nc(-c3ccc(Cl)cc3)c2C1 the Potency was inconclusive: 7.08 µM [cytotoxic, single point].
In the case of CC(C)Cn1cncc1CNC(=O)c1ccc2nc(-c3ccc(F)cc3)cn2c1, the Potency is reported as inconclusive: 10 µM [cytotoxic, partial curve, poor fit].
With COc1ccc(CN2C(=O)COC[C@H]2C(=O)NCc2ccc(Cl)cc2)c(OC)c1 the “activity change, negative = cytotoxicity” value was inactive: -1.05%.
In the case of CN(Cc1cccnc1)c1ccc(-c2nc(COc3ccccc3)no2)cn1, the “activity change, negative = cytotoxicity” value is reported as inactive: -11.4%.
For COc1cc(NC(=O)CCCc2nnc3n(CC(C)C)c(=O)c4sccc4n23)cc(OC)c1, the Potency was inconclusive: 2.24 µM [cytotoxic, full curve, poor fit].
For CCOC(=O)c1cc2c(=O)n3ccccc3nc2n(Cc2ccco2)c1=NC(=O)c1cccc(F)c1, the Potency was inconclusive: 22.4 µM [rising, partial curve].
With CCn1ccc(C(=O)N2C[C@@H](COC)[C@H](c3nc(C)no3)C2)n1 the Potency was inconclusive: 1.26 µM [cytotoxic, full curve, poor fit].
For COc1ccc(-c2cc(N3CCCC(NC(=O)c4ccc(C)s4)C3)n[nH]2)cc1 (stereo unspecified), the “activity change, negative = cytotoxicity” value was inactive: -9.77%.
With COc1cccc(-c2ccc(C(=O)N3CCC(NC(=O)c4ccccc4Cl)CC3)cc2)c1 the activity change, negative = cytotoxicity was inactive: -0.349% [at 12.5 µM].
For COCCOC1CN(C2CCN(S(=O)(=O)c3cccc(F)c3)CC2)C12CCCCC2 (stereo unspecified), the “activity change, negative = cytotoxicity” value was inactive: -1.64%.
With Cc1ccc(-c2nc3cnccn3c2NCCC(=O)N(C)C)cc1 the Potency was inconclusive: 25.1 µM [rising, single point].
With COCCn1c(=O)c(-c2ccc(F)cc2)nc2cnc(N3CCOCC3)nc21 the Potency was inconclusive: 8.91 µM [rising, partial curve].
In the case of CC(C)Cc1cn(CC2CCCN(C(=O)c3n[nH]c4c3CCCC4)C2)nn1 (stereo unspecified), the Potency is reported as inconclusive: 35.5 µM [cytotoxic, partial curve, poor fit].
For COCCCN1C(=O)c2[nH]nc(-c3ccccc3O)c2C1c1ccc(OCc2ccccc2)cc1 (stereo unspecified), the Potency was inconclusive: 39.8 µM [cytotoxic, single point].
In the case of Cc1ccccc1Cn1cc(-c2ccncc2)cc1C(=O)N1CCN(C2CCCCC2)CC1, the Potency is reported as inconclusive: 31.6 µM [cytotoxic, single point].
With CC1(C)[C@H]2CC[C@@H](CNC(=O)Cc3cccc(Cl)c3)[C@@H]1C2 the “activity change, negative = cytotoxicity” value was inactive: -5.32% [at 87.6 µM].
With COc1ccc(C(=O)N[C@H]2C[C@H]3C(=O)Nc4ccc(-c5cccs5)cc4C(=O)N3C2)cc1 the Potency was inconclusive: 25.1 µM [cytotoxic, single point].
With Cc1ccc([S+](=O)([O-])N2CCC3(CC2)CC(=O)N(c2ccccc2)c2ccccc2O3)cc1 the Potency was inconclusive: 20 µM [cytotoxic, partial curve, poor fit].
With CN1CCN(C(=O)C2CCN(c3ccnc4ccnn34)CC2)CC1 the “activity change, negative = cytotoxicity” value was inactive: 3.97% [at 87.6 µM].
For CCc1c(C)sc2c1CCN(Cc1ccc(F)cc1)C2c1ccccc1 (stereo unspecified), the Potency was inconclusive: 25.1 µM [cytotoxic, single point].
With COc1ccc(S(=O)(=O)NC2CCc3n[nH]c(=O)n3CC2)cc1Cl (stereo unspecified) the “activity change, negative = cytotoxicity” value was inactive: -4.94%.
In the case of COc1ccc(-n2nc(C3CCN(C(=O)c4ccccc4)CC3)[nH]c2=O)cc1, the Potency is reported as inconclusive: 2.51 µM [cytotoxic, full curve, poor fit].
In the case of CN1CCN(c2ccc(-c3noc([C@@H]4CCCN4C4CCCCC4)n3)cn2)CC1, the “activity change, negative = cytotoxicity” value is reported as inactive: 23.5% [at 87.6 µM].
With CO[C@H]1CN(C(C)C)[C@H]1C1CCN(C(=O)c2ccc(C#N)cc2)CC1 the “activity change, negative = cytotoxicity” value was inactive: -5.12%.
In the case of CCC(C(=O)Nc1cccc(C#N)c1)n1c(=O)c(-c2ccccc2NC(C)=O)nc2ccccc21 (stereo unspecified), the Potency is reported as inconclusive: 10 µM [cytotoxic, partial curve, poor fit].
For COc1ccccc1N1CCN(C(=O)CCc2ccccc2C)CC1=O, the “activity change, negative = cytotoxicity” value was inactive: 1.11%.
With COC1=C2C[C@@H](C)C[C@H](OC)[C@@H](O)[C@@H](C)C=C(C)[C@H](OC(N)=O)[C@@H](OC)C=CC=C(C)C(=O)NC(=CC1=O)C2=O the Potency was inconclusive: 21.5 µM [cytotoxic, partial curve, poor fit].
For Cc1cc(OCc2nnc(SC3CCCC3)n2-c2cccnc2)ccc1-c1ccc(S(C)(=O)=O)cc1, the Potency was inconclusive: 29.9 µM [cytotoxic, partial curve, poor fit].
In the case of CCCNC(=O)N1CC(Oc2ccc(-c3nc(-c4ccccc4)no3)cc2)C1, the “activity change, negative = cytotoxicity” value is reported as inactive: -10.6%.
For Cc1nc(C)c(C(=O)N2CCC(Oc3ccc(-c4noc(C5CC5)n4)cc3)C2)s1 (stereo unspecified), the Potency was inconclusive: 28.2 µM [cytotoxic, single point].
In the case of O=C(c1ccncc1)N1CCC2(CC1)CN(c1ccncc1)C2, the Potency is reported as inconclusive: 8.91 µM [cytotoxic, single point].
For O=C(Nc1ccc(Cl)cc1)Nc1ccc2n(c1=O)C[C@H]1C[C@@H]2CN(C(=O)c2ccc3ccccc3c2)C1, the Potency was inconclusive: 39.8 µM [cytotoxic, single point].
In the case of COc1ccc(CCNC(=O)c2cc(Sc3cccc(Cl)c3)nc3ccccc23)cc1OC, the Potency is reported as inconclusive: 17.8 µM [cytotoxic, single point].
With Cc1csc(NC(=O)c2nc3c(o2)CCN(Cc2ccc4[nH]ccc4c2)CC3)n1 the “activity change, negative = cytotoxicity” value was inactive: -28.4% [at 87.6 µM].
In the case of COc1ccc(NC(=O)C2CCCN(C(=O)c3cnn(-c4ccccc4)c3-n3cccc3)C2)cc1 (stereo unspecified), the Potency is reported as inconclusive: 22.4 µM [cytotoxic, partial curve, poor fit].
For COc1cccc(Nc2ncc3nc(-c4cn(C)c5ccccc45)c(=O)n(C[C@H]4CCCO4)c3n2)c1, the Potency was inconclusive: 17.8 µM [rising, partial curve, poor fit].
In the case of O=C1CCN(C(=O)C2CCN(S(=O)(=O)c3cccs3)CC2)CCCCCCN1, the “activity change, negative = cytotoxicity” value is reported as inactive: -2.36%.
Potency is the fitted concentration of half-maximal effect; tags give direction and shape of the fitted curve.
